Laboratory results: patent publication US6946544 (AEGERA THERAPEUTICS, dated 2005)

How the values were obtained:
[1] = target: T1, 35S-labeled in vitro translated HIAP-1 (human, UniProt Q13489, 35S labeled methionine); experiment: pull-down of 35S-labeled in vitro translated protein on GST-control protein on glutathione beads, SDS-PAGE and autoradiography
T1 construct: mature; Made from the pcDNA3-myc construct with the TNT T7 Coupled Reticulocyte Lysate System
Method: (§1) ^35S-labeled in vitro translated proteins were incubated with GST-XAF-1 fusion protein or GST-control protein immobilized on 10 μl of glutathione beads. Protein adsorbed to beads were analyzed by SDS-PAGE. The protein bearing gel was then dried, and adsorbed proteins were detected by autoradiograph of the gel. The lanes were loaded as follows: lane 1: HIAP1, lane 2: TRAF2. Proteins in A lanes were affinity-purified with the GST-XAF-1 fusion protein. Proteins in B lanes were affinity-purified with the GST-control protein.

[2] = target: T2, 35S-labeled in vitro translated TRAF2 (UniProt Q12933 2-501, 35S labeled methionine); experiment: as above
T2 construct: mature; Made from the pcDNA3-myc construct with the TNT T7 Coupled Reticulocyte Lysate System
T2 sequence (looked up): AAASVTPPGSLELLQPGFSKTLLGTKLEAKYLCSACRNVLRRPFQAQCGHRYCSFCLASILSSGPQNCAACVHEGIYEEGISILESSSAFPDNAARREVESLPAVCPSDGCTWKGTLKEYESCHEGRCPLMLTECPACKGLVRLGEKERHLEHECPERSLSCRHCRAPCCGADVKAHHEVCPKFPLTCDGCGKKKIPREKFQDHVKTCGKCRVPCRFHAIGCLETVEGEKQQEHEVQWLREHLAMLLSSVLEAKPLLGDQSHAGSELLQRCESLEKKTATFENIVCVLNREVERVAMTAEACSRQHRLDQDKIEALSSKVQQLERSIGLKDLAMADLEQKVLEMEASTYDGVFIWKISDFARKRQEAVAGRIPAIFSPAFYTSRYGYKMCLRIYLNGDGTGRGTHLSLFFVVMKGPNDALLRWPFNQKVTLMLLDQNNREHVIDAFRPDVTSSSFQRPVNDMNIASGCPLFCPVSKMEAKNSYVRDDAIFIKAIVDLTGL
Method: as §1

- binding result [1]: no binding
- binding result [2]: no binding
B1: GST-control protein (Glutathione-s-transferase from Schistosoma Japonicum) (enzyme)
chain: not shown
notes: Control protein immobilized on glutathione beads
